The other results are listed elsewhere or left out. The list includes weakly bound sequences.

This experiment deals with T1, MBP-FoxP3dN (UniProt Q99JB6).
T1 sequence: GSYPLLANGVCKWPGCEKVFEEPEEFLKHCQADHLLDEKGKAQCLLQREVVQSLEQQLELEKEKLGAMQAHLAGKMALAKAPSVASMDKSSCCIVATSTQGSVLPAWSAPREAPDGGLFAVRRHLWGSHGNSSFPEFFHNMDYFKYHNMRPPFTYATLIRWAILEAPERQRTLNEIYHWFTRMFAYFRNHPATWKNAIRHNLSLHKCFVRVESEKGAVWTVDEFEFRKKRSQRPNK
Nature of the experiment: PD-seq (MBP pull-down with sequencing). The following applies: 20 mM Tris-HCl pH 7.5, 100 mM NaCl, 1.5 mM MgCl2, 0.4 uM protein, 0.1 uM dsDNA library, 30 min, room temperature, amylose pull-down; high values mean tight binding; double strand, one strand shown.
On to “GATGATTGTTCTCCCAGCTGATGAATTGACACAATCGAGTAAACAAATTTTCCTAATCTTTCTGTTCAAGCGCCATCTAC”, for which the binding signal (RPM ratio (pull-down/input)) came to 1.3. As for “GATGATTGTTCTCCCAGCTGATGAATTCAACCATTCGAGTAAACAAATTTTCCTAATCTTTCTGTTCAAGCGCCATCTAC”, the binding signal (RPM ratio (pull-down/input)) was found to be 0.46. The result for “GATGATTGTTCTCCCAGCTGATGAATTTTCCGCGTCGAGTAAACAAATTTTCCTAATCTTTCTGTTCAAGCGCCATCTAC” reads 0.461. For “GATGATTGTTCTCCCAGCTGATGAATTTTGGCTGTCGAGTAAACAAATTTTCCTAATCTTTCTGTTCAAGCGCCATCTAC” the value was 0.42; for “GATGATTGTTCTCCCAGCTGATGAATTGTGAGGGTCGAGTAAACAAATTTTCCTAATCTTTCTGTTCAAGCGCCATCTAC”, 0.555; for “GATGATTGTTCTCCCAGCTGATGAATTATCACTGTCGAGTAAACAAATTTTCCTAATCTTTCTGTTCAAGCGCCATCTAC”, 0.395. For “GATGATTGTTCTCCCAGCTGATGAATTCGCGTAATCGAGTAAACAAATTTTCCTAATCTTTCTGTTCAAGCGCCATCTAC” the value was 0.717. With “GATGATTGTTCTCCCAGCTGATGAATTTCGGTATTCGAGTAAACAAATTTTCCTAATCTTTCTGTTCAAGCGCCATCTAC”, the binding signal (RPM ratio (pull-down/input)) is 1.11.

As for “GATGATTGTTCTCCCAGCTGATGAATTGTTGGCGTCGAGTAAACAAATTTTCCTAATCTTTCTGTTCAAGCGCCATCTAC”, the binding signal (RPM ratio (pull-down/input)) stood at 2.29.

For the sequence “GATGATTGTTCTCCCAGCTGATGAATTTCAATTTTCGAGTAAACAAATTTTCCTAATCTTTCTGTTCAAGCGCCATCTAC”, the binding signal (RPM ratio (pull-down/input)) was determined as 0.494. For the sequence “GATGATTGTTCTCCCAGCTGATGAATTTAGCCTCTCGAGTAAACAAATTTTCCTAATCTTTCTGTTCAAGCGCCATCTAC”, the binding signal (RPM ratio (pull-down/input)) came out at 5.79.

With “GATGATTGTTCTCCCAGCTGATGAATTATTTACATCGAGTAAACAAATTTTCCTAATCTTTCTGTTCAAGCGCCATCTAC”, the binding signal (RPM ratio (pull-down/input)) was 3.48. Consider “GATGATTGTTCTCCCAGCTGATGAATTTTGTATTTCGAGTAAACAAATTTTCCTAATCTTTCTGTTCAAGCGCCATCTAC”, for which the binding signal (RPM ratio (pull-down/input)) came out at 5.33.

Consider “GATGATTGTTCTCCCAGCTGATGAATTTGACCCCTCGAGTAAACAAATTTTCCTAATCTTTCTGTTCAAGCGCCATCTAC”, for which the binding signal (RPM ratio (pull-down/input)) came out at 0.463. For the sequence “GATGATTGTTCTCCCAGCTGATGAATTGACAGATTCGAGTAAACAAATTTTCCTAATCTTTCTGTTCAAGCGCCATCTAC”, the binding signal (RPM ratio (pull-down/input)) worked out at 0.325. For “GATGATTGTTCTCCCAGCTGATGAATTCCACAGTTCGAGTAAACAAATTTTCCTAATCTTTCTGTTCAAGCGCCATCTAC”, the binding signal (RPM ratio (pull-down/input)) turned out to be 0.317. Consider “GATGATTGTTCTCCCAGCTGATGAATTATGACAATCGAGTAAACAAATTTTCCTAATCTTTCTGTTCAAGCGCCATCTAC”, for which the binding signal (RPM ratio (pull-down/input)) came to 0.761.

For “GATGATTGTTCTCCCAGCTGATGAATTCTTCGCGTCGAGTAAACAAATTTTCCTAATCTTTCTGTTCAAGCGCCATCTAC”, the binding signal (RPM ratio (pull-down/input)) stood at 0.432. For the sequence “GATGATTGTTCTCCCAGCTGATGAATTGATATAGTCGAGTAAACAAATTTTCCTAATCTTTCTGTTCAAGCGCCATCTAC”, the binding signal (RPM ratio (pull-down/input)) is 0.661.

With “GATGATTGTTCTCCCAGCTGATGAATTAGATATTTCGAGTAAACAAATTTTCCTAATCTTTCTGTTCAAGCGCCATCTAC”, the binding signal (RPM ratio (pull-down/input)) is 1.2. Turning to “GATGATTGTTCTCCCAGCTGATGAATTCAGTTGCTCGAGTAAACAAATTTTCCTAATCTTTCTGTTCAAGCGCCATCTAC”, the binding signal (RPM ratio (pull-down/input)) was 1.69. Consider “GATGATTGTTCTCCCAGCTGATGAATTGATTAAGTCGAGTAAACAAATTTTCCTAATCTTTCTGTTCAAGCGCCATCTAC”, for which the binding signal (RPM ratio (pull-down/input)) was 0.265. “GATGATTGTTCTCCCAGCTGATGAATTCCGATTGTCGAGTAAACAAATTTTCCTAATCTTTCTGTTCAAGCGCCATCTAC”: the binding signal (RPM ratio (pull-down/input)) came to 1.93. In the case of “GATGATTGTTCTCCCAGCTGATGAATTACGCCGATCGAGTAAACAAATTTTCCTAATCTTTCTGTTCAAGCGCCATCTAC”, the binding signal (RPM ratio (pull-down/input)) was 0.687. The result for “GATGATTGTTCTCCCAGCTGATGAATTACGAGTCTCGAGTAAACAAATTTTCCTAATCTTTCTGTTCAAGCGCCATCTAC” reads 1.24; that for “GATGATTGTTCTCCCAGCTGATGAATTTCTGCTGTCGAGTAAACAAATTTTCCTAATCTTTCTGTTCAAGCGCCATCTAC”, 0.378. Regarding “GATGATTGTTCTCCCAGCTGATGAATTAAGTTGTTCGAGTAAACAAATTTTCCTAATCTTTCTGTTCAAGCGCCATCTAC”, the binding signal (RPM ratio (pull-down/input)) worked out at 4.89.

“GATGATTGTTCTCCCAGCTGATGAATTCCGGAGATCGAGTAAACAAATTTTCCTAATCTTTCTGTTCAAGCGCCATCTAC”: the binding signal (RPM ratio (pull-down/input)) turned out to be 0.241. As for “GATGATTGTTCTCCCAGCTGATGAATTACCGACCTCGAGTAAACAAATTTTCCTAATCTTTCTGTTCAAGCGCCATCTAC”, the binding signal (RPM ratio (pull-down/input)) came out at 0.301. As to “GATGATTGTTCTCCCAGCTGATGAATTTTTAAAATCGAGTAAACAAATTTTCCTAATCTTTCTGTTCAAGCGCCATCTAC”, the binding signal (RPM ratio (pull-down/input)) is 0.24. For “GATGATTGTTCTCCCAGCTGATGAATTGCGCCATTCGAGTAAACAAATTTTCCTAATCTTTCTGTTCAAGCGCCATCTAC”, the binding signal (RPM ratio (pull-down/input)) was 6.51.

Values taken from PMC12820563.
